# Results published in PMC4336329 (PLoS ONE, 2015).
# Hit rate of the full screen: of about 310,000 compounds, about 14,000 (4.5%) showed an effect of 50% or more. The effect is printed as a negative number. The list shows a part of the results.
# Target: human ether-à-go-go-related gene (hERG) potassium channel (human, UniProt Q12809)
# Assay: primary screen, population patch clamp on CHO cells stably expressing hERG
# 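Further: peak tail current of the secondary pulse compared with the same well before compound.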
# Sequence of human ether-à-go-go-related gene (hERG) potassium channel (Q12809 whole entry, looked up): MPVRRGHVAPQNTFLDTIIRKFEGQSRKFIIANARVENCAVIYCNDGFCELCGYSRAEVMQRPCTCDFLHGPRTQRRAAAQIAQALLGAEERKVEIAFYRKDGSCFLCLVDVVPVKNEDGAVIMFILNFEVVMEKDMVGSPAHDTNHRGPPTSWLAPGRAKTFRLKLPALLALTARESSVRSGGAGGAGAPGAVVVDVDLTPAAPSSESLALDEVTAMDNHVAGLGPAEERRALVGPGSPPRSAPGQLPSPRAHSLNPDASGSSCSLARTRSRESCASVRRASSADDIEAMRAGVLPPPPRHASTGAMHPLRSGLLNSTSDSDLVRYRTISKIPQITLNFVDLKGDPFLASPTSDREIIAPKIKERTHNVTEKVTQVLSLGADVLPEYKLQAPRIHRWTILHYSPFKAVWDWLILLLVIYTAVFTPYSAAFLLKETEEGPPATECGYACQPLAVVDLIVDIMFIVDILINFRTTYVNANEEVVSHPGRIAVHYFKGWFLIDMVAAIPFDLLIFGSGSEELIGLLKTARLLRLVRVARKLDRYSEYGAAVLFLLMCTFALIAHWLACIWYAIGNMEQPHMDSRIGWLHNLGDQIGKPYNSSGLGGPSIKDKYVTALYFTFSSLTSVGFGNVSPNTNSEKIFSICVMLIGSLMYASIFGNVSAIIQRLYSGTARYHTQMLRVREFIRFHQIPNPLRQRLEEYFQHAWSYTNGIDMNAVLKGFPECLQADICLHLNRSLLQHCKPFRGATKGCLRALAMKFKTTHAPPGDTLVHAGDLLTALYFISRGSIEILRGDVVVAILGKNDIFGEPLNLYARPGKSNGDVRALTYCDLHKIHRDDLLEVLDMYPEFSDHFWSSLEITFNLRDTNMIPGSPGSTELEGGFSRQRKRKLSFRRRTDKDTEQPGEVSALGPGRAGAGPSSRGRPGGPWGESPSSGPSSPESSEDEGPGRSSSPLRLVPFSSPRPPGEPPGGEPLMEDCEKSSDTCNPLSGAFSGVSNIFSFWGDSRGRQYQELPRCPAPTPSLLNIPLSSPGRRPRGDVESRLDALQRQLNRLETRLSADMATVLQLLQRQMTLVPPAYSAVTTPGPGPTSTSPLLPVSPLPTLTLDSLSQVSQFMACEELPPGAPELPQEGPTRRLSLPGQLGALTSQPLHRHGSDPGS
row,SMILES,"hERG current change (%, negative = inhibition) at 10uM"
1,CCCC(=O)Oc1ccc(C2NC(=O)c3ccccc3O2)cc1OC (stereo not shown),11.6%
2,O=C(CC1Oc2ccccc2NC1=O)NCc1ccc(Cl)cc1 (stereo not shown),5.13%
3,CC(C)Oc1ccc(C2C(C#N)=C(N)Oc3c2oc(CO)cc3=O)cc1 (stereo not shown),-7.32%
4,C/C(=N/NC(=O)CN1CCN(S(=O)(=O)c2ccc(C)cc2)CC1)c1cccc(O)c1,-15%
5,O=C(NNC(=O)c1cc(Cl)ccc1O)c1ccc(NS(=O)(=O)c2cccs2)cc1,-20.7%
6,CCN1C2=C(C(=O)CCC2)C(c2ccc(O)cc2)C2=C1CCCC2=O,6.21%
7,C=CCNC(=O)COC(=O)CCC(=O)c1cccs1,1.42%
8,CCOC(=O)C1(Cc2ccccc2)CCN(Cc2cnn(CC)c2)CC1,-21.2%
9,C/C(=N\NC(=O)COc1ccc(C)cc1[N+](=O)[O-])c1cccs1,22.5%
10,CCOC(=O)c1c(C)[nH]c(C)c1S(=O)(=O)N(C)CC(=O)NCc1cccc(Br)c1,-25.1%
11,C[C@@H]1CCCCCCCCC(=O)OCCN1C(=O)OC(C)(C)C,-25.1%
12,Cc1ccc(N(Cc2ccc(C(=O)NCCSc3ccccn3)cc2)S(C)(=O)=O)cc1C,-4.82%
13,CC(C)c1ccccc1NC(=O)COc1ccc2c(=O)c(Oc3ccc4ccccc4c3)coc2c1,13.7%
14,Cc1ccc(NS(=O)(=O)c2ccc3[nH]c(=O)[nH]c3c2)cc1,21%
15,COC(=O)c1ccc(CNC(=O)COc2ccccc2Br)o1,-9.48%
16,CCn1c(SCC(=O)Nc2ccc(N3CCOCC3)cc2)nnc1-c1ccco1,-9.78%
17,Cc1ccc(CCNS(=O)(=O)c2cc3c(cc2C)n(C)c(=O)c(=O)n3C)cc1,-30.8%
18,COc1ccc(C(C)=O)cc1CC(=O)NC1CCCCCC1,0.141%
19,Cc1ccc(C(=O)N2CCN(S(=O)(=O)c3ccc(C)c([N+](=O)[O-])c3)C2)cc1,-42.7%
20,CS/C(=C\[N+](=O)[O-])Nc1ccc(Cl)cc1,5.73%
21,CCOCCCNC(=O)c1cn(CC(C)C)c(=O)c2c1c1ccccc1n2C,16.8%

row,SMILES,"hERG current change (%, negative = inhibition) at 10uM"
1,O=[N+]([O-])c1ccc(Nc2ccccc2)cc1,-0.75%
2,C#CCOCCOCCOCCNc1nc(N2CCN(C(=O)[C@H](C(C)C)n3cc(CCO)nn3)CC2)nc(N2CCN(C(=O)[C@H]([C@@H](C)CC)n3cc(CCCC[NH3+])nn3)CC2)n1.[Cl-],11.9%
3,CCCCN1C(=O)NC(=O)C2(Cc3c(nc4ccccn4c3=O)N3CCc4ccccc4C32)C1=O (stereo not shown),-16.6%
4,Cc1onc(-c2c(Cl)cccc2Cl)c1COC(=O)c1ccc(Cl)cc1,10.8%
5,COc1ccc(NC(=O)CCN2CCN(S(=O)(=O)c3ccc(Br)cc3)CC2)cc1,-4.14%
6,CN([C@@H](C(=O)OC(C)(C)C)c1ccccc1)S(=O)(=O)c1cccc(S(=O)(=O)N(C)[C@@H](C(=O)OC(C)(C)C)c2ccccc2)c1,14.3%
7,CCOc1ccc(C2/C(=C(\O)c3cccc(OC)c3)C(=O)C(=O)N2c2cc(C)on2)cc1OC (stereo not shown),8.06%
8,Cc1nc(S(=O)(=O)c2ccc(Cl)cc2)c(N(C)C)o1,16.9%
9,Cc1ccc(CN2CCCC(C(=O)c3ccc4c(c3)OCO4)C2)cc1C (stereo not shown),-64.6%
10,Cc1cc(C(=O)OCC(=O)Nc2cc(S(=O)(=O)N3CCOCC3)ccc2Cl)c(C)o1,-44.2%
11,O=C(Nc1cccc(-c2nn[nH]n2)c1)c1csc2c1CCCC2,7.22%
12,Cc1ccc(-c2c(C(=O)N/N=C/C3CCCCC3)nnn2-c2nonc2N)cc1,4.87%
13,Cc1ccc(CCNC(=O)c2ccc(NC3=NC4CS(=O)(=O)CC4S3)cc2)cc1 (stereo not shown),10.5%
14,COC(=O)[C@]1(C)CCC[C@@]2(C)C3CC[C@@]4(C)C[C@]3(CCC21)CC(=O)N4 (stereo partly shown),8.4%
15,COCCN1C(=O)NC(=O)/C(=C\c2ccc(Br)cc2)C1=O,29.9%
16,CCOc1cccc(N2C(=O)CC(N(CCc3ccc(OC)c(OC)c3)C(=O)CC)C2=O)c1 (stereo not shown),24.9%
17,Cc1ccc(C(NC(=O)C(C)C)c2cc([N+](=O)[O-])c3cccnc3c2O)cc1 (stereo not shown),-9.48%
18,Cc1ccc(NC(=O)CSc2n[nH]c(-c3cccnc3)n2)c(Br)c1,16%
19,COCCn1nnnc1C(c1cccs1)N1CCN(c2cc(C)ccc2C)CC1.Cl (stereo not shown),-4.62%
20,COc1ccc(S(=O)(=O)N(CC(=O)NCc2ccccn2)c2ccc(Cl)cc2)cc1,13.3%
21,COc1cccc(/C(O)=C2/C(=O)C(=O)N(c3cc(C)on3)C2c2cccs2)c1 (stereo not shown),16.3%

row,SMILES,"hERG current change (%, negative = inhibition) at 10uM"
1,O=S(=O)(c1cccs1)n1cnc2ccccc21,7.37%
2,O=C(CCCN1C(=O)c2ccccc2C1=O)N1CCOCC1,5.44%
3,Clc1ccc(Cn2c(-c3cccnc3Cl)nc3ccccc32)c(Cl)c1,-22.1%
4,Cc1ccc(COCCN2CCN(S(=O)(=O)c3ccccc3)CCC2=O)cc1,-0.87%
5,CCN(Cc1ccccc1)c1ccc(/C=N/NS(=O)(=O)c2cccc([N+](=O)[O-])c2)cc1,10.3%
6,FC(F)Oc1ccc(-n2cc(-c3ccc(Cl)cc3)[n+]3c2CCCCC3)cc1.[Br-],-78.3%
7,COc1cc(/C=N/NC(=O)c2cc(-c3ccccc3OC(C)C)nc3ccccc23)ccc1O,-2.25%
8,COC(=O)CCC(=O)Nc1ccc(S(=O)(=O)N2CCCCCC2)cc1,-19.6%
9,COc1ccc(Br)cc1CNC(=O)C1CCN(S(=O)(=O)N2CCC(C)CC2)CC1,-35%
10,O=C(NCC1CCN(Cc2ccc(F)cc2)CC1)Nc1cc(F)ccc1F,-65.1%
11,CCCCCCC(=O)N1C/C=C\C(c2ccc(OC)cc2)N(Cc2ccc(F)cc2)C(=O)C1 (stereo not shown),-43.7%
12,C/C(=N/NC(=O)CNC(=O)COc1cccc(C)c1)c1ccco1,-1.9%
13,O=C(O)CCC(=O)Nc1ccc(Sc2ccc([N+](=O)[O-])cc2)cc1,-16%
14,CC1CCN(CCc2nc3cc(NC(=O)COc4ccccc4)ccc3n2C)CC1,-68.4%
15,COc1ccc(-c2oc3c(OC)c(OC)c(OC)c(O)c3c(=O)c2OC)cc1OC,1.37%
16,CCOC(=O)Cc1csc(NC(=O)Nc2cccc(Cl)c2)n1,22.5%
17,Cc1ccc(S(=O)(=O)CC(=O)Nc2nc3ccc(S(N)(=O)=O)cc3s2)cc1,9.02%
18,Cc1cc[n+]2c3c(cccc13)CCC2.[Cl-],17.4%
19,O=C(COC(=O)/C=C/c1cccs1)Nc1nc(-c2cccc(Br)c2)cs1,11.1%
20,CC(C)C[C@H](NC(=O)C1CCN(S(=O)(=O)c2ccccc2)CC1)C(=O)NCc1ccncc1,12.7%
21,COc1ccccc1CNC(=O)COC(=O)Cc1cccc(F)c1,1.78%

row,SMILES,"hERG current change (%, negative = inhibition) at 10uM"
1,O=C(Nc1ccc([N+](=O)[O-])cc1)c1cc2ccccc2nc1Cl,-4.85%
2,COc1ccc(C(C)NC(=O)c2ccncc2)cc1OC (stereo not shown),11.1%
3,N#Cc1cccc2cnccc12,4.95%
4,c1ccc(Sc2nc(N3CCCCC3)nc(N3CCCCC3)n2)nc1,-38.7%
5,COc1ccc(CC(=O)Nc2ccc(S(=O)(=O)Nc3ncccn3)cc2)cc1,6.28%
6,COc1ccc(CC(=O)OCC(=O)Nc2ccc3c(c2)OCCO3)cc1OC,23.7%
7,O=C(COC(=O)c1ccccc1NS(=O)(=O)c1cc([N+](=O)[O-])ccc1Cl)c1ccccc1,-9.54%
8,Cc1ccc(N2CC(C(=O)NCCCn3ccnc3)CC2=O)cc1 (stereo not shown),1.56%
9,O=C(O)c1ccc(Br)cn1,9.73%
10,CC(=O)Nc1ccc(NC(=O)CSc2nc3ccccc3o2)cc1,14.2%
11,COc1ccc(-c2nc(SCC(=O)Nc3nccs3)c(-c3ccc(Cl)cc3)[nH]2)cc1,9.59%
12,CN(C)c1ccc(S(=O)(=O)NCC(=O)NCc2ccccc2)cc1[N+](=O)[O-],5.27%
13,CN1C(=O)NC(c2ccccc2[N+](=O)[O-])C2=C1CC(C)(C)CC2=O (stereo not shown),24.8%
14,CN1CCN(CCNC(=O)c2cc3c(=O)n(C)c4ccccc4c3n2C)CC1,12.2%
15,COC(=O)c1ccc(N2NC(=O)/C(=C/c3cc(OC)c(OC)c(OC)c3)C2=O)cc1,6.87%
16,CS(=O)(=O)c1ccc(C(=O)NCCN2C(=O)S/C(=C\c3cccnc3)C2=O)cc1[N+](=O)[O-],1.32%
17,Cc1ccc(OCCC(=O)Nc2ccccc2C(=O)N2CCCCC2)cc1,-12.7%
18,COC(=O)c1c(NC(=O)c2ccco2)sc2c1CCN(C(C)C)C2.Cl,-62.5%
19,O=C(CSc1cccc[n+]1[O-])Nc1cc([N+](=O)[O-])ccc1Cl,18.2%
